The results in this text go back to the supplement of paper PMC9446081.

About 220 (0.56%) of roughly 39,000 compounds showed activity. Some of the results follow.
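Note: static incubation at 37 °C against the wild-type strain, values averaged over two biological replicates.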

The subject of the test is Escherichia coli K-12 BW25113. Nature of the test: relative growth (OD600 normalised to plate interquartile mean) (fraction); higher = less growth inhibition, active = 0.2 or less. The following applies: 50 µM; LB; incubation time: overnight (16-24 h).
Turning to `C[C@@]1(F)[C@H](O)[C@@H](CO)O[C@H]1n1ccc(N)nc1=O`, the relative growth is inactive: 0.994.

Regarding `O=C(NN1CCCCC1)c1nn(-c2ccc(Cl)cc2Cl)c(-c2ccc(C#Cc3ccc(C(F)(F)F)cc3)s2)c1CNS(=O)(=O)N1CCCC1`, the relative growth was inactive: 1.03. Turning to `C[C@@H]1CCCCO[C@@H](CN(C)Cc2ccccc2)[C@@H](C)CN([C@H](C)CO)C(=O)c2cc(NC(=O)Nc3cccc4ccccc34)ccc2O1`, the relative growth is inactive: 1.04.

For the compound `C[C@H](CO)N1C[C@H](C)[C@@H](CN(C)C(=O)Nc2cccc(Cl)c2Cl)OCc2ccccc2-c2ccccc2C1=O`, the relative growth was inactive: 0.987. As for `C[C@H]1CCCCO[C@@H](CN(C)C(=O)CCCN(C)C)[C@@H](C)CN([C@@H](C)CO)C(=O)c2cc(NC(=O)Nc3ccc(F)cc3)ccc2O1`, the relative growth was inactive: 0.98. For the compound `C=CC[C@H](CC(=O)NCCO)C(=O)N[C@@H](COC(=O)[C@@H](CC=C)CC(=O)OC(C)(C)C)Cc1ccccc1`, the relative growth is inactive: 0.957. On to `CC(C)CC#Cc1ccc2c(c1)O[C@@H](CN(C)C(=O)c1ccccn1)[C@H](C)CN([C@H](C)CO)S2(=O)=O`, for which the relative growth was inactive: 1.02. Consider `CNC[C@@H]1Oc2c(NS(=O)(=O)c3cn(C)cn3)cccc2C(=O)N([C@H](C)CO)C[C@@H]1C`, for which the relative growth is inactive: 0.973.

Turning to `C[C@H]1CN([C@@H](C)CO)C(=O)c2cccc(NC(=O)CCCCCC(=O)Nc3ccccc3N)c2O[C@H]1CN(C)Cc1ccc(-c2ccccc2)cc1`, the relative growth is inactive: 1.01. As to `COc1ccc(C=CC(=O)c2cc(O)ccc2O)cc1`, the relative growth was inactive: 0.897. The result for `COc1ccc(S(=O)(=O)N(C)C[C@H]2Oc3ccc(NC(=O)CCC(F)(F)F)cc3CC(=O)N([C@@H](C)CO)C[C@H]2C)cc1` reads inactive: 1.01; that for `COCC#Cc1cnc2c(c1)C(=O)N([C@@H](C)CO)C[C@@H](C)[C@H](CN(C)C(=O)CN1CCOCC1)O2`, inactive: 1.02; that for `C[C@H]1CCCCO[C@H](CN(C)C(=O)Nc2ccc(F)cc2)[C@@H](C)CN([C@@H](C)CO)C(=O)c2cc(NC(=O)Cc3ccccc3)ccc2O1`, inactive: 1.02. The result for `Cc1noc(C)c1NC(=O)Nc1ccc2c(c1)CC(=O)N([C@@H](C)CO)C[C@@H](C)[C@@H](CN(C)C(=O)Nc1cccc3ccccc13)O2` reads inactive: 0.99. The result for `C[C@@H]1CCCCO[C@H](CN(C)S(C)(=O)=O)[C@@H](C)CN([C@@H](C)CO)C(=O)c2cc(NC(=O)Nc3ccc(C(F)(F)F)cc3)ccc2O1` reads inactive: 1; that for `COC1OC2OC3(C)CCC4C(C)CCC(C1C)C24OO3` (stereo unspecified), inactive: 0.441; that for `CCCN(C)C[C@@H]1OCCCC[C@@H](C)Oc2ccc(NC(=O)Nc3c(C)noc3C)cc2C(=O)N([C@H](C)CO)C[C@@H]1C`, inactive: 1.01.

Regarding `CC(C)(C)c1cccc(CN)c1`, the relative growth is inactive: 0.934.

As to `COc1ccc(CN(C)C[C@H]2OCCCC[C@H](C)Oc3ccc(NC(=O)CCC(F)(F)F)cc3C(=O)N([C@@H](C)CO)C[C@H]2C)cc1`, the relative growth is inactive: 1.01. Consider `COc1ccc(CN(C)C[C@@H]2OCCCC[C@H](C)Oc3ccc(NC(=O)NC(C)C)cc3C(=O)N([C@@H](C)CO)C[C@@H]2C)cc1`, for which the relative growth was inactive: 0.992. Consider `C[C@@H]1CN([C@@H](C)CO)C(=O)c2cc(NS(C)(=O)=O)ccc2O[C@@H]1CN(C)C(=O)Nc1ccccc1`, for which the relative growth is inactive: 0.991.

Consider `C[C@@H]1CN([C@H](C)CO)C(=O)c2cc(NS(=O)(=O)c3cn(C)cn3)ccc2O[C@H]1CN(C)Cc1ccncc1`, for which the relative growth is inactive: 0.829. As to `CCCNC(=O)N1C[C@@H](O)COC[C@@H]2O[C@@H](CC(=O)N3CCN(C)CC3)CC[C@H]21`, the relative growth is inactive: 0.991. The result for `COc1ccc(NC(=O)Nc2ccc3c(c2)C(=O)N([C@H](C)CO)C[C@@H](C)[C@@H](CN(C)S(=O)(=O)c2cn(C)cn2)O3)cc1` reads inactive: 0.975; that for `COC(=O)[C@H](Cc1ccc(-n2cc(C(=O)NO)nn2)cc1)N1C[C@](C)(OC)O[C@@H](Cc2ccccc2)[C@H]1/C=C/C1CC1`, inactive: 1.01; that for `C[C@H](CO)N1C[C@H](C)[C@@H](CN(C)C(=O)NC2CCCCC2)Oc2ccc(NC(=O)Nc3cccc4ccccc34)cc2C1=O`, inactive: 1.04. As for `CC(C)(C)OC(=O)N[C@H]1CCC(=O)NC1=O`, the relative growth is inactive: 1.05. The result for `C[C@@H]1CN([C@H](C)CO)C(=O)c2cc(NC(=O)CCCCCC(=O)Nc3ccccc3N)ccc2O[C@H]1CN(C)S(C)(=O)=O` reads inactive: 1; that for `Cc1ccccc1S(=O)(=O)N1C[C@H](O)COC[C@@H]2O[C@@H](CC(=O)NCCc3ccccc3)CC[C@H]21`, inactive: 0.985; that for `C[C@H](CO)N1C[C@H](C)[C@H](CN(C)C(=O)NC2CCCCC2)OCCCC[C@H](C)Oc2ccc(NC(=O)c3ccncc3)cc2C1=O`, inactive: 0.98. Regarding `COCC(=O)Nc1ccc2c(c1)C(=O)N(C)[C@@H]1CC[C@H](CC(=O)NCc3ccc(OC)cc3)O[C@H]1CO2`, the relative growth is inactive: 0.999.

Take `Cl.Cl.NCCCCN`: the relative growth was inactive: 0.999. The result for `COc1ccc(NC(=O)Nc2ccc3c(c2)C(=O)N([C@@H](C)CO)C[C@@H](C)[C@H](CN(C)CC2CCCCC2)O3)cc1` reads inactive: 0.998; that for `C[C@H]1CN([C@@H](C)CO)C(=O)CCCn2nncc2CO[C@H]1CN(C)S(=O)(=O)c1cccc(C#N)c1`, inactive: 0.974. With `COc1ccc(S(=O)(=O)Nc2ccc3c(c2)CC(=O)N([C@H](C)CO)C[C@H](C)[C@H](CN(C)Cc2ccc(-c4ccccc4)cc2)O3)cc1`, the relative growth was inactive: 1.01.

In the case of `Cc1ccccc1S(=O)(=O)N1C[C@H](O)COC[C@H]2O[C@H](CC(=O)N3CCC(Cc4ccccc4)CC3)CC[C@@H]21`, the relative growth is inactive: 0.975. In the case of `C[C@H](CO)N1C[C@H](C)[C@H](CN(C)S(=O)(=O)c2cn(C)cn2)Oc2c(NC(=O)C3CCOCC3)cccc2C1=O`, the relative growth was inactive: 0.874. The result for `C[C@H]1CN([C@@H](C)CO)C(=O)Cc2cc(NC(=O)CCC(F)(F)F)ccc2O[C@H]1CN(C)Cc1ccc(C(=O)Nc2ccccc2N)cc1` reads inactive: 0.991; that for `C[C@H]1CN([C@@H](C)CO)C(=O)Cc2cc(NC(=O)Cn3cnnn3)ccc2O[C@@H]1CN(C)Cc1ccc(-c2ccccc2)cc1`, inactive: 0.986; that for `Cc1cc(C(=O)Nc2cccc3c2O[C@@H](CN(C)C(=O)NC2CCCCC2)[C@H](C)CN([C@@H](C)CO)C3=O)n(C)n1`, inactive: 1.01. The result for `COc1cc(OC)nc(N)n1` reads inactive: 1; that for `C[C@@H]1CCCCO[C@@H](CN(C)CC2CCCCC2)[C@@H](C)CN([C@H](C)CO)C(=O)c2cc(N(C)C)ccc2O1`, inactive: 1; that for `S=c1[nH]cc(-c2ccccc2)[nH]1`, inactive: 0.927. The result for `C[C@H](CO)N1C[C@H](C)[C@@H](CN(C)S(=O)(=O)c2ccc(Cl)cc2)Oc2ccc(NC(=O)c3ccncc3)cc2CC1=O` reads inactive: 0.977. In the case of `C[C@H](CO)N1C[C@H](C)[C@H](CN(C)S(=O)(=O)c2ccc(Cl)cc2)Oc2ccc(NC(=O)Cn3cnnn3)cc2CC1=O`, the relative growth is inactive: 1.04. On to `Cc1ccc(S(=O)(=O)N(C)C[C@H]2Oc3ccc(NS(=O)(=O)c4ccc(F)cc4)cc3CC(=O)N([C@@H](C)CO)C[C@@H]2C)cc1`, for which the relative growth is inactive: 1.02. The result for `C[C@H](CO)N1C[C@H](C)[C@@H](CN(C)C(=O)Nc2ccc(C(F)(F)F)cc2)Oc2ccc(NC(=O)Nc3ccc(C(F)(F)F)cc3)cc2C1=O` reads inactive: 1; that for `Cc1noc(C)c1S(=O)(=O)Nc1ccc2c(c1)C(=O)N([C@@H](C)CO)C[C@@H](C)[C@H](CN(C)C(=O)Nc1ccccc1)O2`, inactive: 0.997. The result for `COc1cccc(S(=O)(=O)N2C[C@H](O)COC[C@H]3O[C@H](CC(=O)N4CCOCC4)CC[C@@H]32)c1` reads inactive: 0.99.

For the compound `COc1ccc(S(=O)(=O)N(C)C[C@@H]2Oc3ccc(NC(=O)Nc4cc(Cl)cc(Cl)c4)cc3CC(=O)N([C@@H](C)CO)C[C@@H]2C)cc1Cl`, the relative growth was inactive: 1.02. The result for `CO[C@@H]1CN(C)C(=O)c2cc(NS(=O)(=O)CC(F)(F)F)ccc2OC[C@@H](C)N(C(=O)c2ccc3c(c2)OCO3)C[C@@H]1C` reads inactive: 0.968. The result for `COc1ccc(C#Cc2ccc3c(c2)O[C@H](CN(C)C(C)=O)[C@@H](C)CN([C@H](C)CO)S3(=O)=O)cc1` reads inactive: 1; that for `Clc1ccc(-c2cc[nH]n2)cc1`, inactive: 0.912.

For the compound `COc1cccc(C#Cc2ccc3c(c2)O[C@H](CN(C)C(C)=O)[C@H](C)CN([C@@H](C)CO)S3(=O)=O)c1`, the relative growth is inactive: 1.01.

Consider `COc1ccc(C#Cc2cnc3c(c2)C(=O)N([C@H](C)CO)C[C@H](C)[C@H](CN(C)S(=O)(=O)c2cccc(F)c2)O3)cc1OC`, for which the relative growth was inactive: 1.03. The result for `C[C@@H]1CCCCO[C@H](CN(C)CC2CCCCC2)[C@@H](C)CN([C@H](C)CO)C(=O)c2cc(NC(=O)Nc3ccc4c(c3)OCO4)ccc2O1` reads inactive: 0.996.

In the case of `O=C(C[C@@H]1CC[C@@H]2[C@H](COC[C@H](O)CN2S(=O)(=O)c2ccc(Cl)cc2)O1)N[C@H]1CCN(Cc2ccccc2)C1`, the relative growth was inactive: 0.987. Consider `C[C@H](CO)N1C[C@H](C)[C@@H](CN(C)Cc2ccc(-c3ccccc3)cc2)Oc2ccc(NC(=O)Nc3ccc4c(c3)OCO4)cc2C1=O`, for which the relative growth was inactive: 1.02. The result for `Cc1ccc(S(=O)(=O)N(C)C[C@@H]2Oc3ncc(-c4ccncc4)cc3C(=O)N([C@@H](C)CO)C[C@@H]2C)cc1` reads inactive: 0.912; that for `Cc1noc(C)c1NC(=O)Nc1ccc2c(c1)C(=O)N([C@@H](C)CO)C[C@@H](C)[C@H](CN(C)CC1CCCCC1)OCCCC[C@H](C)O2`, inactive: 1.02; that for `C[C@@H]1CN([C@H](C)CO)C(=O)Cc2cc(NC(=O)CCCCCC(=O)Nc3ccccc3N)ccc2O[C@@H]1CN(C)Cc1ccc(C(F)(F)F)cc1`, inactive: 1.06.
